Experimental data as given in PubChem BioAssay AID1347417 (National Center for Advancing Translational Sciences (NCATS), 2020).
In all, about 120,000 compounds went through this assay and about 5,300 (4.4%) were called active. Inconclusive means that the source gave no clear call. Such entries were picked first, then a sample of the others. Calls come from the whole dose curve; as a rule, active = well fitted inhibition curve with a large enough effect; inconclusive = small, poorly fitted or top-dose-only effect; inactive = no such curve, though single readings can be large or run the other way. Where the call is inconclusive, the potency comes from a doubtful curve fit.

Assay: qHTS Primary assay for Inhibitors of Plasmodium falciparum Dd2 growth in vitro; note: nearly all actives have a fitted effect of over 65% in size;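 for activity, negative = inhibition: plate controls were DMSO vehicle for no effect and reference drug for full effect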
Settings: P. falciparum Dd2 growth, SYBR Green, 72 h; activity, negative = inhibition: at 28.9 µM (top of the series) unless noted; series mostly up to 28.9 µM
How it was run: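 Infected erythrocytes (Dd2, 0.3% parasitemia, 2.5% hematocrit final) are added to compound in RPMI-1640/Albumax II medium, grown 72 h at 37C in low oxygen, then lysed with saponin/Triton-X containing SYBR Green and read by fluorescence.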
Potency is the fitted concentration of half-maximal effect; tags give direction and shape of the fitted curve.

SMILES	Potency	activity, negative = inhibition
Cc1ccc(-c2nc(CNC(=O)C3(N)CCC3)[nH]c2-c2ccccn2)cc1	inconclusive: 12.6 µM [inhibitor, partial curve, poor fit]	
CN1c2cc(C(=O)NCc3ccc(Cl)cc3)ccc2C(=O)N2CCCCCC21 (configuration not stated)	inconclusive: 3.98 µM [inhibitor, single point]	
COC(=O)[C@@H]1Cc2ncn(Cc3ccc(Cl)cc3)c2CN1CCCc1ccccc1	inconclusive: 3.55 µM [inhibitor, full curve, poor fit]	
CC(CCN1CCOCC1)NC(=O)c1cccc(NCC(=O)O)c1 (configuration not stated)	inactive	
c1cc(-c2ccsc2)n2nc(C3CCC3)nc2n1	inconclusive: 8.91 µM [inhibitor, partial curve, poor fit]	
COC(=O)c1cc(NC(=O)CCS(=O)(=O)c2cc(Br)cc3c2N(C(=O)C2CC2)CC3)cc(C(=O)OC)c1	inactive	
O=C(NC[C@H]1OC[C@@H](N(Cc2ccccc2F)Cc2ccccc2F)[C@@H]1O)c1ccccc1	inactive	
CCOc1cc2[nH]c(=O)n(CCC(=O)N3CCN(c4cccc(Cl)c4)CC3)c(=O)c2cc1OCC		inactive: 12.6% [at 0.594 µM]
O=C(NCc1cccc(F)c1)C1Cn2cccc2C(=O)N1Cc1cccnc1 (configuration not stated)	inconclusive: 10 µM [inhibitor, single point]	
O=C(O)c1ccc(-c2ncc3cnc(C4=CCOCC4)cn23)cc1	inactive	
CCOc1ccc(-c2cc3nc(C4CCN(C(=O)OC(C)(C)C)CC4)c(C(=O)Nc4ccc(C(=O)OC)cc4)cn3n2)cc1	inconclusive: 1.41 µM [inhibitor, full curve, poor fit]	
O=C(NCc1ccccc1)N1CCCCC1c1nc(C2CC2)n[nH]1 (configuration not stated)	inactive	
Cc1cc(C)cc(N2C(=O)CS(=O)(=O)C23C(=O)N(Cc2ccc(F)cc2)c2ccc(C)cc23)c1 (configuration not stated)	inconclusive: 11.2 µM [inhibitor, single point]	
O=C(C1CC1)N(C1CCOCC1)C1CCN(S(=O)(=O)c2ccc(F)c(Cl)c2)CC1	active: 10 µM	
COc1ccc(CC(=O)Nc2ccc(=O)n3c2[C@@H]2C[C@@H](CN(S(=O)(=O)c4ccc(OC)cc4)C2)C3)cc1	inconclusive: 3.16 µM [inhibitor, partial curve, poor fit]	
COC(=O)c1sccc1S(=O)(=O)N(CC(=O)Nc1ccc(C)cc1)c1ccccc1	inactive	
CN1C[C@@H](NC(=O)c2ccc3ccccc3c2)C[C@H]1c1nc(-c2ccc3c(c2)OCO3)no1	inconclusive: 6.31 µM [inhibitor, partial curve, poor fit]	
